Values of other authors in PMC11006913.
This is one part of the list.

How the values were obtained:
Details in all cases: PBM; conditions not shown; double strand, one strand shown; scale: upbm affinity estimate (log intensity, higher = more binding, comparable within an allelic series)
[1] = target: PITX2 L100Q (Homo sapiens) (UniProt Q99697)
[2] = target: PITX2 R108H (Homo sapiens) (UniProt Q99697)
[3] = target: PITX2 R130W (Homo sapiens) (UniProt Q99697)
[4] = target: PITX2 T114P (Homo sapiens) (UniProt Q99697)

Row | Sequence | binding signal [1] | binding signal [2] | binding signal [3] | binding signal [4]
1 | GATTAACA [8-mer GATTAACA] | 10.9 | 9.22 | 8.72 | 9.34
2 | GGGCTTAA [8-mer GGGCTTAA] | 11 | 8.93 | 8.22 | 9.48
3 | AGGGATTA [8-mer AGGGATTA] | 11.9 | 9.98 | 8.55 | 10.7
4 | AGGGGGTC [8-mer AGGGGGTC] | 8.21 | 8.17 | 8 | 8.16
5 | CCGGTCTC [8-mer CCGGTCTC] | 8.06 | 8.05 | 7.99 | 8.06
6 | AAGATTAG [8-mer AAGATTAG] | 10.9 | 9.12 | 8.52 | 9.3
7 | CGCAGCCC [8-mer CGCAGCCC] | 8.1 | 7.99 | 7.95 | 8.05
8 | GCCTCCCA [8-mer GCCTCCCA] | 8.22 | 8.05 | 7.83 | 8.12
9 | CCTGCACC [8-mer CCTGCACC] | 8.06 | 8.11 | 8.17 | 8.16
10 | ATAATCCA [8-mer ATAATCCA] | 11.4 | 9.57 | 8.82 | 9.9
11 | CTAATCCC [8-mer CTAATCCC] | 11.7 | 9.87 | 8.52 | 10.5
12 | GGCCCCCC [8-mer GGCCCCCC] | 8.05 | 7.76 | 7.5 | 7.76
13 | CGGATTAG [8-mer CGGATTAG] | 11.3 | 9.53 | 8.33 | 9.91
14 | GCCCGAAC [8-mer GCCCGAAC] | 8.17 | 8.18 | 8.04 | 8.09
15 | TGGATTAA [8-mer TGGATTAA] | 11.6 | 9.78 | 8.7 | 10.2
16 | AGAATTTA [8-mer AGAATTTA] | 9.51 | 8.8 | 8.55 | 8.74
17 | CGGGCGGC [8-mer CGGGCGGC] | 8.24 | 7.86 | 7.67 | 7.96
18 | GGATTATA [8-mer GGATTATA] | 11.5 | 9.84 | 8.7 | 10.2
19 | CCCAGCCA [8-mer CCCAGCCA] | 8.34 | 8.16 | 8.06 | 8.19
20 | ACGATTAC [8-mer ACGATTAC] | 9.8 | 8.79 | 8.6 | 8.75
21 | GGGATTAC [8-mer GGGATTAC] | 11.3 | 9.28 | 8.37 | 9.88
22 | CGCTCCGC [8-mer CGCTCCGC] | 8.38 | 8.05 | 7.86 | 8.06

Row | Sequence | binding signal [1] | binding signal [2] | binding signal [3] | binding signal [4]
23 | CGACGGCG [8-mer CGACGGCG] | 8.1 | 8.1 | 7.99 | 8.12
24 | CACCGGGC [8-mer CACCGGGC] | 7.99 | 7.86 | 7.71 | 7.97
25 | AAATCCGC [8-mer AAATCCGC] | 9.97 | 8.51 | 8.22 | 8.61
26 | TAAGATTA [8-mer TAAGATTA] | 10.8 | 9.09 | 8.5 | 9.24
27 | GCACGCCA [8-mer GCACGCCA] | 8.17 | 8.06 | 8 | 8.12
28 | CAGGCCCG [8-mer CAGGCCCG] | 7.98 | 7.84 | 7.74 | 7.88
29 | GGTTTAAC [8-mer GGTTTAAC] | 10.1 | 8.69 | 8.53 | 8.82
30 | TAATCCCA [8-mer TAATCCCA] | 11.5 | 9.66 | 8.65 | 10.2
31 | AAAGATTA [8-mer AAAGATTA] | 10.9 | 9.33 | 8.8 | 9.36
32 | AGGCCGCC [8-mer AGGCCGCC] | 7.99 | 7.99 | 7.93 | 7.96
33 | ACTCATCC [8-mer ACTCATCC] | 9.29 | 8.57 | 8.61 | 8.63
34 | GCGGGAGA [8-mer GCGGGAGA] | 8.18 | 8.1 | 8.02 | 8.12
35 | AACCGGGC [8-mer AACCGGGC] | 8.4 | 8.1 | 7.97 | 8.18
36 | GGCGTGCA [8-mer GGCGTGCA] | 8.21 | 8.09 | 8.18 | 8.16
37 | TAATCCAA [8-mer TAATCCAA] | 11.1 | 9.4 | 8.76 | 9.68
38 | AGCATGCT [8-mer AGCATGCT] | 8.39 | 8.41 | 8.42 | 8.43
39 | CGGTCACG [8-mer CGGTCACG] | 8.29 | 8.09 | 8.15 | 8.15
40 | CCGGATTA [8-mer CCGGATTA] | 11.3 | 9.53 | 8.37 | 9.93
41 | GAATGGCC [8-mer GAATGGCC] | 8.13 | 8.18 | 8.1 | 8.21
42 | AGGGATCA [8-mer AGGGATCA] | 10.4 | 8.76 | 8.44 | 9.02
43 | GAAGATTA [8-mer GAAGATTA] | 10.8 | 9.16 | 8.57 | 9.33
44 | ATTACCGA [8-mer ATTACCGA] | 9.63 | 8.79 | 8.62 | 8.81
